Source: the antibiotic and cytotoxicity screens of Wong et al. (2023)
Some of the results follow.

What follows are molecules tested on HSkMC (human skeletal muscle cells) (assay: cytotoxicity call (relative viability < 0.9)). Conditions: 10 µM.
In the case of C[C@@H]1CN([C@@H](C)CO)C(=O)c2cccc(NS(=O)(=O)c3cn(C)cn3)c2O[C@H]1CN(C)Cc1ccncc1, the cytotoxicity call is reported as “inactive”.
In the case of C[C@H](CO)N1C[C@H](C)[C@H](CN(C)S(=O)(=O)c2cn(C)cn2)Oc2ncc(C#Cc3ccccc3)cc2C1=O, the cytotoxicity call is reported as “inactive”.
In the case of C[C@H]1CN([C@@H](C)CO)C(=O)Cc2cc(NC(=O)Cc3ccccc3)ccc2O[C@@H]1CN(C)S(C)(=O)=O, the cytotoxicity call is reported as “inactive”.
With COc1cc(C(=O)OCCN2CCCN(CCOC(=O)c3cc(OC)c(OC)c(OC)c3)CC2)cc(OC)c1OC the cytotoxicity call was “inactive”.
In the case of O=C(NC1Cc2ccccc2C1)[C@@H]1[C@@H](CO)[C@@H]2Cn3c(cccc3=O)[C@@H]2N1C(=O)c1cnccn1, the cytotoxicity call is reported as “inactive”.
In the case of C[C@H]1CCCCO[C@@H](CN(C)Cc2ccncc2)[C@@H](C)CN([C@@H](C)CO)C(=O)c2cc(NC(=O)CCC(F)(F)F)ccc2O1, the cytotoxicity call is reported as “inactive”.
With C[C@H](CO)N1C[C@H](C)[C@@H](CN(C)S(=O)(=O)c2cccs2)OCCCC[C@H](C)Oc2ccc(NC(=O)Cc3ccccc3)cc2C1=O the cytotoxicity call was “inactive”.
In the case of Nc1oncc1-c1ccc(Cl)cc1, the cytotoxicity call is reported as “inactive”.
CO[C@H]1CN(C)C(=O)c2cc(NC(=O)Nc3ccccc3)ccc2OC[C@@H](C)N(C(=O)CN(C)C)C[C@@H]1C was tested, and the cytotoxicity call was “inactive”.
C[C@@H]1CCCCO[C@@H](CN(C)C(=O)NC2CCCCC2)[C@@H](C)CN([C@@H](C)CO)C(=O)c2cc(NC(=O)Nc3ccc4c(c3)OCO4)ccc2O1 was tested, and the cytotoxicity call was “inactive”.
CC(C)CC#Cc1ccc2c(c1)O[C@@H](CN(C)C(=O)c1cccnc1)[C@@H](C)CN([C@H](C)CO)S2(=O)=O was tested, and the cytotoxicity call was “inactive”.
CSC(=N)NCCC[C@@H](N)C(=O)O was tested, and the cytotoxicity call was “inactive”.
C[C@@H]1CN([C@@H](C)CO)C(=O)c2cc(NS(=O)(=O)c3cccs3)ccc2O[C@@H](C)CCCCO[C@@H]1CN(C)S(=O)(=O)c1cn(C)cn1 was tested, and the cytotoxicity call was “inactive”.
With C[C@@H]1CN([C@@H](C)CO)C(=O)c2cccc(NC(=O)Nc3ccccc3)c2O[C@H]1CN(C)Cc1ccc(-c2ccccc2)cc1 the cytotoxicity call was “active”.
In the case of C[C@@H]1CN([C@H](C)CO)C(=O)Cc2cc(NS(=O)(=O)c3ccc(F)cc3)ccc2O[C@H]1CN(C)S(=O)(=O)c1cccs1, the cytotoxicity call is reported as “inactive”.
With C[C@H]1COC(=O)[C@@H](Cc2ccc(F)cc2)CC=CC[C@@H](CC(=O)N[C@H](CO)Cc2ccccc2)C(=O)N1 the cytotoxicity call was “inactive”.
In the case of C[C@H]1CN([C@@H](C)CO)C(=O)c2cc(NS(=O)(=O)c3ccccc3)ccc2O[C@@H]1CN(C)Cc1ccc(Cl)c(Cl)c1, the cytotoxicity call is reported as “inactive”.
N#CCC(=O)N1CCSCC1 was tested, and the cytotoxicity call was “inactive”.
With COc1nn(C)cc1C(=O)Nc1ccon1 the cytotoxicity call was “inactive”.
Cc1noc(C)c1S(=O)(=O)N(C)C[C@@H]1OCCCC[C@@H](C)Oc2ccc(NC(=O)Nc3ccc(C(F)(F)F)cc3)cc2C(=O)N([C@H](C)CO)C[C@H]1C was tested, and the cytotoxicity call was “inactive”.
In the case of C[C@H](CO)N1C[C@H](C)[C@@H](CN(C)Cc2ccccc2)Oc2ccc(NC(=O)CCCN(C)C)cc2CC1=O, the cytotoxicity call is reported as “inactive”.
With C[C@@H]1CN([C@@H](C)CO)C(=O)c2cc(NC(=O)Cc3ccccc3)ccc2O[C@H]1CN(C)S(=O)(=O)c1ccccc1 the cytotoxicity call was “inactive”.
With CNC[C@@H]1Oc2c(NS(=O)(=O)c3cn(C)cn3)cccc2C(=O)N([C@H](C)CO)C[C@@H]1C the cytotoxicity call was “inactive”.
For Cc1noc(C)c1NC(=O)Nc1ccc2c(c1)CC(=O)N([C@@H](C)CO)C[C@H](C)[C@@H](CN(C)S(=O)(=O)c1cccs1)O2, the cytotoxicity call was “inactive”.
CO[C@@H]1CN(C)C(=O)c2cc(NC(=O)c3cnccn3)ccc2OC[C@@H](C)N(CCC(F)(F)F)C[C@H]1C was tested, and the cytotoxicity call was “inactive”.
With COc1ccc(C(=O)NCC#N)cc1 the cytotoxicity call was “inactive”.
In the case of C[C@@H]1CN(S(=O)(=O)N2CCN(C(=O)c3[nH]nc4ccccc34)CC2)C[C@H](C)O1, the cytotoxicity call is reported as “inactive”.
C[C@H]1CN([C@@H](C)CO)C(=O)c2cc(NC(=O)Cc3cn(C)c4ccccc34)ccc2O[C@@H]1CN(C)S(C)(=O)=O was tested, and the cytotoxicity call was “inactive”.
For C[C@@H]1CN([C@@H](C)CO)S(=O)(=O)c2ccc(C3=CCCC3)cc2O[C@@H]1CN(C)C(=O)c1cnccn1, the cytotoxicity call was “inactive”.
For C[C@@H]1CN([C@@H](C)CO)C(=O)c2cc(C#C[C@@H](C)O)cnc2O[C@H]1CN(C)C(=O)CN1CCOCC1, the cytotoxicity call was “inactive”.
OCC1c2ccccc2-c2ccccc21 was tested, and the cytotoxicity call was “inactive”.
In the case of C[C@@H]1CN([C@H](C)CO)C(=O)c2cc(NC(=O)Nc3ccccc3)ccc2O[C@@H](C)CCCCO[C@@H]1CN(C)Cc1ccc(C(=O)O)cc1, the cytotoxicity call is reported as “inactive”.
In the case of O=C(C[C@@H]1C[C@@H]2c3cc(NC(=O)NC4CCCC4)ccc3O[C@@H]2[C@H](CO)O1)NCc1ccc2c(c1)OCO2, the cytotoxicity call is reported as “inactive”.
In the case of C[C@@H]1CN([C@@H](C)CO)S(=O)(=O)c2ccc(C3=CCCCC3)cc2O[C@H]1CN(C)C(=O)C1CCOCC1, the cytotoxicity call is reported as “inactive”.
COc1ccc(CN(C)C[C@@H]2OCCCC[C@H](C)Oc3ccc(NC(=O)Nc4ccccc4)cc3C(=O)N([C@@H](C)CO)C[C@H]2C)cc1 was tested, and the cytotoxicity call was “inactive”.
CC(C)C#Cc1cnc2c(c1)C(=O)N([C@@H](C)CO)C[C@@H](C)[C@@H](CN(C)C(=O)c1ccc3c(c1)OCO3)O2 was tested, and the cytotoxicity call was “inactive”.
For C[C@@H]1CN([C@H](C)CO)C(=O)c2cc(C#CC3CCCC3)cnc2O[C@H]1CN(C)S(=O)(=O)c1cccc(F)c1, the cytotoxicity call was “inactive”.
COC(=O)C(CC#Cc1ccc2c(c1)[C@]1(C(=O)N2)[C@H](c2ccc(OCCO)cc2)N2[C@H](c3ccccc3)[C@H](c3ccccc3)OC(=O)[C@H]2[C@@H]1C(=O)Nc1nc2ccccc2s1)C(=O)OC was tested, and the cytotoxicity call was “inactive”.
In the case of Cc1noc(C)c1S(=O)(=O)Nc1ccc2c(c1)CC(=O)N([C@H](C)CO)C[C@@H](C)[C@H](CN(C)C(=O)Nc1ccccc1)O2, the cytotoxicity call is reported as “inactive”.
COc1ccc(S(=O)(=O)Nc2cccc3c2O[C@H](CN(C)Cc2ccc(Oc4ccccc4)cc2)[C@@H](C)CN([C@@H](C)CO)C3=O)cc1 was tested, and the cytotoxicity call was “inactive”.
